Reference: the supplement of paper PMC10126150
Values marked as one replicate rest on one cluster of the flow cell; about a third of the high ones do not repeat.

test system: ATP; test: switch fluorescence ratio, 500 uM ATP over buffer (Cy3 cluster intensity, sum of 5 cycles each) (fold (ratio)); higher = stronger signal-on switching upon ATP binding; sequences stand for … in TCGTCGGCAGCGTCAGATGTGTATAAGAGACAGTTTTTTTTTTTTTTTTTTTTTTTTT…TC; conditions: aptamer strand: ATP DNA aptamer (quencher-CACCTGGGGGAGTATTGCGGAGGAAGG + anchor), 100 nM annealed; ATP concentration: 500 uM; one replicate
In short: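 Exposure to 500 uM ATP lasted 15 min at 22 °C before imaging, and a selection-buffer image was taken beforehand, for Cy3-labelled switching-strand clusters on a modified Illumina MiSeq flow-cell annealed to 100 nM quencher-labelled ATP aptamer. Five buffer/ATP cycles were run with NaOH stripping and re-annealing between them. The fluorescence ratio per cluster is summed target-cycle over summed buffer-cycle Cy3 intensity, averaged per switch-domain sequence. Clusters outside 100-1000 RFU were excluded.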

Sequence | switch fluorescence ratio
TCTCAAAGTG | 0.946
TCTCAGGGAC | 1.11
TCTCAGTTAT | 0.986
TCTCATTCA | 0.99
TCTCCAACA | 1.06
TCTCCAGATT | 0.997
TCTCCGAGGA | 1.27
TCTCCGGATG | 2.71
TCTCCTAAG | 1.04
TCTCCTATAA | 1.3
TCTCCTTCTT | 1.41
TCTCCTTGGC | 1.1
TCTCGATCCG | 1.03
TCTCGCATGT | 1.54
TCTCGCGCAT | 3.65
TCTCGGCCTA | 1.12
TCTCGGGGAG | 1.02
TCTCGTCGGT | 0.994
TCTCTCAT | 0.975
TCTCTGGCAC | 2.24
TCTGACGGTA | 1.59
TCTGACT | 1.02
TCTGATAT | 1.02
TCTGCACGTA | 1.12
TCTGCAGGCA | 0.961
TCTGCCGGGG | 1

Sequence | switch fluorescence ratio
TCTGCTTAG | 0.972
TCTGCTTGTC | 0.974
TCTGGATAGC | 1.09
TCTGGATCGT | 1
TCTGGATTAG | 0.985
TCTGGCTTGC | 1.01
TCTGGGAACT | 0.998
TCTGGGATGT | 0.998
TCTGGGGT | 0.969
TCTGGGTTTT | 1.04
TCTGGTGACA | 1.02
TCTGTACA | 0.992
TCTGTACTTT | 1
TCTGTAGAGG | 0.988
TCTGTATGTC | 0.974
TCTGTCATG | 1.05
TCTGTCCACG | 0.982
TCTGTGAAGG | 1.01
TCTGTTAACG | 0.994
TCTGTTGAA | 0.996
TCTGTTGGTA | 0.952
TCTGTTGTCC | 1.03
TCTTAATTGA | 1.02
TCTTAATTGC | 1.02
TCTTACTGTG | 1.02
TCTTAGGATG | 0.957

Sequence | switch fluorescence ratio
TCTTAGGTAG | 0.961
TCTTAGTAAG | 0.997
TCTTAGTCG | 1
TCTTATCAGT | 0.999
TCTTATCCC | 1.03
TCTTATTTAG | 1.05
TCTTCAATCA | 1.02
TCTTCACCGG | 1.04
TCTTCATGGG | 0.997
TCTTCCACAG | 2
TCTTCCCGCT | 1.89
TCTTCGTCAT | 1.28
TCTTCTACAG | 1.03
TCTTCTATTG | 1.01
TCTTCTGGGG | 1.09
TCTTGAGTGG | 0.991
TCTTGATAGG | 0.989
TCTTGATCGG | 0.962
TCTTGCTAG | 1.02
TCTTGGATAG | 0.987
TCTTGTACTG | 1.08
TCTTGTCGG | 0.917
TCTTGTCTTT | 0.983
TCTTGTTCAA | 0.97
TCTTGTTCTT | 0.969
TCTTGTTGCA | 1.01

Sequence | switch fluorescence ratio
TCTTTAAGCG | 1.02
TCTTTACAT | 1.02
TCTTTAGAAT | 0.962
TCTTTATCAA | 1.1
TCTTTCCCCT | 1.2
TCTTTGCAAA | 1.19
TCTTTGCCAG | 1.03
TGAAAA | 0.92
TGAAAACCTG | 1.01
TGAAAACTCA | 1.02
TGAAAACTT | 1.07
TGAAAGCTTT | 1.03
TGAAAGGGGC | 1.07
TGAAAGTTAA | 1.34
TGAAAGTTAG | 0.971
TGAAATCCTT | 1.04
TGAAATGTCT | 0.984
TGAAATTATT | 0.991
TGAACGAGAG | 1
TGAACTCTGA | 0.989
TGAAGAATTT | 1
TGAAGACTTG | 0.943
TGAAGATTAA | 0.979
TGAAGCAGAT | 1.13
TGAAGTTTAT | 0.98
TGAATAATAA | 0.956

Sequence | switch fluorescence ratio
TGAATGATTA | 1
TGAATGGCGA | 0.967
TGAATTATAA | 1
TGAATTATC | 1.03
TGAATTGGTT | 0.976
TGAATTTTCA | 1.03
TGACAAAGAG | 1.04
TGACAAATGG | 1.01
TGACACAATT | 1.1
TGACACCG | 1.02
TGACACTTCC | 2.58
TGACAGATCA | 1.01
TGACAGGCTC | 0.996
TGACAGTACT | 1.34
TGACAGTGCC | 0.985
TGACATAC | 1.35
TGACATAGTG | 1.04
TGACATGTTG | 0.976
TGACCACAGC | 1.12
TGACCAGAGC | 1.07
TGACCAGCTG | 1
TGACCCCGGA | 1.03
TGACCGGGCA | 1.02
TGACCTGCCG | 0.966
TGACCTTACT | 2.01
TGACGAGGAG | 0.972

Sequence | switch fluorescence ratio
TGACGATCCA | 1.12
TGACGCGTGC | 1.4
TGACGCTGAG | 1.03
TGACGGATCG | 0.939
TGACGGGTGC | 1.12
TGACGTAGCC | 1.44
TGACGTAGGA | 0.99
TGACGTATC | 1.06
TGACGTTGT | 1.01
TGACTACTTT | 1.06
TGACTAGGAG | 0.986
TGACTCGACC | 1.09
TGACTGCCCC | 1.09
TGACTGTCTT | 0.997
TGACTGTGAT | 1.02
TGACTTCACG | 1.04
TGACTTGGGA | 1.03
TGACTTTCTT | 0.985
TGACTTTTTG | 1
TGAGAAACGA | 0.998
TGAGAACACT | 1.02
TGAGAAGGGT | 0.982
TGAGAAGGT | 0.951
TGAGACGCGA | 1.23
